From ChEMBL document CHEMBL4888484, “Replenishing the malaria drug discovery pipeline: Screening and hit evaluation of the MMV Hit Generation Library 1 (HGL1) against asexual blood stage Plasmodium falciparum ,using a nano luciferase reporter read-out” (2022)
Out of some 150,000 compounds screened, about 540 (0.36%) showed an effect of 50% or more. This is one part of the list.

tested on: Plasmodium falciparum; assay: Primary screen in NF54 nanoGlo assay, in single point, at 2uM, 72h; a lower Z score goes with more inhibition; format: functional, Erythrocyte; details: timepoint 72 hour

SMILES | % Inhibition [%] | Z score
CC(C)OCC1CCN(C(=O)c2ccnc(C(C)C)n2)CC1 | -4 | 0.39
c1ccc(-c2cc(-c3nc([C@H]4CCOC4)no3)n[nH]2)cc1 | -14 | 1.42
Cc1cc(O)cc(=O)n1CCCC(=O)N1CCC[C@H]1c1nc2ccccc2n1C(C)C | -3 | 0.61
CCc1nccn1CCC(=O)N[C@H]1CCOC[C@@H]1Oc1ccc(CO)cc1 | -9 | 0.83
C[C@H](O)C(=O)N1CCC(c2nccn2CC2CCC2)CC1 | 0 | 0.06
c1ccc(-n2cc(Cn3nccc3N[C@H]3CCCOC3)cn2)cc1 | -2 | 0.21
N#CC1(NS(=O)(=O)c2c(Cl)cccc2Br)CC1 | -16 | 1.4
Cc1cc(-c2nc3ccccc3n2C)c(=O)n(CCC(N)=O)n1 | -9 | 0.77
O=C(Cn1c(-c2cccs2)cc2cc(F)ccc21)NC1CCCCCC1 | -3 | 0.36
Cn1nncc1C1(O)CN(c2nc3ccccc3n3cncc23)C1 | -10 | 1.56
C[C@H]1CN(CCC(=O)NCc2cc(-c3ccccc3)[nH]n2)Cc2cc(Cl)ccc2O1 | -8 | 0.99
Cc1nccc(C(=O)NCC2(c3ccccc3)CC2)n1 | -9 | 0.92
O=C(Nc1ccccc1F)OCC(F)(F)F | -3 | 0.57
Cc1cccc(CN2CC[C@@H]3CN(C(=O)c4onc5c4CCCC5)C[C@@H]32)n1 | 3 | -0.56
CN(CCC1(O)CCCC1)CCS(C)(=O)=O | -6 | 0.94
CCN=C(NC)NC[C@@H](c1ccccc1OC)N1CCCC1 | -8 | 0.77
CN(C(=O)c1cccc(-c2nccs2)c1)[C@H]1COC[C@@H]1O | -14 | 1.85
O=C(NCC(=O)N1CCC(n2c(=O)[nH]c3ncccc3c2=O)CC1)OCc1ccccc1 | -8 | 1.64
CC1CC(C)CN(S(=O)(=O)c2ccc(C(=O)N3CCCN(C)c4nc5ccccc5nc43)cc2)C1 (stereo not drawn) | -9 | 1.16
CC(C)c1ccc(N2C[C@@H](CN3CCOCC3)C[C@H](CO)C2)nn1 | -7 | 0.77
COc1cc(CN2CCc3nc(N4CCN(C)CC4)nc(N4CCOCC4)c3C2)cc(OC)c1 | -16 | 2.17

SMILES | % Inhibition [%] | Z score
CCn1nccc1NC(=O)c1cc(F)c[nH]1 | -7 | 0.82
CS(=O)(=O)c1ccc(Cl)c(S(=O)(=O)Nc2cnoc2-c2ccccc2)c1 | -4 | 0.63
Cc1cc(C#N)ccc1C(=O)NCCOC1CCCCC1 | -3 | 0.51
Cc1ccc(Nc2nc(N)nc(-c3ccc(C4(O)CCNCC4)cc3)n2)cc1 | -3 | 0.52
CCCc1nnsc1C(=O)N1CCc2nc(NC(=O)OCC)sc2C1 | -5 | 1.08
O=C(c1ccc2ncsc2c1)N1CCC(F)(F)C1 | -14 | 1.73
c1n[nH]cc1CCCN1CCc2[nH]ncc2C1 | 4 | -0.73
O=C1C[C@H](COCc2ccccc2)c2c(-c3cccs3)n[nH]c2N1 | -3 | 0.4
O=C(CCC(=O)N1CCN(c2cccc(Cl)c2)CC1)Nc1ccc(OCc2ccccc2)cc1 | 5 | -0.73
O=S(=O)(NCc1cccc2c1OCO2)c1ccc(CC(F)(F)F)cc1 | 4 | -0.63
Cc1ccc(NS(=O)(=O)c2cc(CN3C(=O)C4CCCCC4C3=O)ccc2C)cc1C (stereo not drawn) | -10 | 1.35
O=C1CN(CC(=O)Nc2nc(-c3ccccc3)cs2)CCN1 | -17 | 1.82
Cc1cc(C)n(C(=O)C2C(C)ON(c3ccccc3)C2c2ccccc2)n1 (stereo not drawn) | -1 | 0.16
COc1ccccc1[C@H]1CCN(S(=O)(=O)c2ccc3c(c2)CCO3)C1 | -5 | 0.8
Fc1ccc(Oc2ncnc3oc(-c4ccccc4)cc23)c(Cl)c1 | -11 | 1.38
c1ccc2c(c1)CCOC21CCN(Cc2ncc[nH]2)CC1 | -3 | 0.51
Cc1cnc(CN(C[C@H]2CCCO2)C2CCCC2)cn1 | -8 | 0.7
O=S(=O)(NCCc1c[nH]c2ncccc12)c1cccc(Br)c1 | -15 | 1.77
CC1CCC(C)N1C1CCCN(S(=O)(=O)c2ccc(Cl)c(C(F)(F)F)c2)C1 (stereo not drawn) | -4 | 0.74
CCCc1ncncc1C(=O)NC(C)(C)COCC | -8 | 1.28
O=C1CN(c2ccc(C(F)(F)F)cn2)C2CCCCC2N1 (stereo not drawn) | 15 | -2.06

SMILES | % Inhibition [%] | Z score
CC(C)n1ccc(C(=O)N2CCOC[C@@H]2C)n1 | -14 | 2.66
CCCOc1ccc(N(CC(F)F)S(C)(=O)=O)cc1 | -14 | 1.9
Cc1ccc(C(=O)c2ccc(NC(=O)c3ncn(-c4ccc(Cl)cc4)n3)cc2)cc1 | 38 | -4.91
CC(=O)c1ccc(F)c(-c2ccc(C(=O)N3CC[C@@H](O)C3)cc2)c1 | -23 | 2.68
Cc1ccc2[nH]c(Nc3ccc4c(c3)OCO4)nc2c1 | -5 | 0.66
O=C(CN1CCO[C@H](c2cccs2)C1)Nc1cccnn1 | -5 | 0.86
CC[C@]1(O)CCOC2(CCN(Cc3cnn(C)c3)CC2)C1 | -17 | 2.77
C[C@H]1Cc2ccccc2N1CCNC(=O)c1[nH]nc2c1CCCC2 | 2 | -0.27
Cc1c2c(=O)n(-c3nc4ccccc4s3)n(CC(=O)Nc3ccc(F)cc3)c2cc(=O)n1CCCN1CCOCC1 | -30 | 3.47
CCOc1cccc2c1OCC(C(=O)N1CCN(C)C(=O)C1)=C2 | -12 | 2.34
Fc1cccc(F)c1-c1nc(Cn2ccnn2)co1 | -1 | 0.12
CCOc1ccc(N2CCC[C@H](CNC(=O)c3ccccc3)C2)nn1 | 1 | -0.14
O=C(O)c1nccnc1C(=O)Nc1cccc2c1ccn2Cc1ccccc1 | -24 | 2.77
C[C@@H]1C[C@@H](NC(=O)NCC2CCC(C#N)CC2)c2ccccc2O1 (stereo partly drawn) | 3 | -0.5
CN(C(=O)c1cccc(N2CCCC2=O)c1)c1ccc2ccccc2n1 | 1 | -0.12
COCOc1ccc2ccccc2c1-c1nc(C2OCCO2)cs1 | -8 | 0.93
Nc1cc(N2CC[C@H](F)C2)c(Cl)cn1 | 6 | -1.21
O=C(Cn1cnnn1)N1CC[C@@](F)(c2cccc(C(F)(F)F)c2)C1 | -8 | 0.85
Cc1cc(-c2nc(-c3ccc(F)cc3)no2)c(C)n1CC(=O)Nc1ccc(F)c(F)c1 | -4 | 0.72
COc1ccc(CN2C(=O)O[C@H]3CN(c4nc(C)cc(C)n4)C[C@H]32)cc1OC | 0 | 0.03
CCn1ncnc1[C@H](C)NC(=O)Cn1cc(C(F)(F)F)ccc1=O | -2 | 0.38

SMILES | % Inhibition [%] | Z score
CNc1ncnc2cc(C(=O)NC3CCC(OC(F)F)CC3)ccc12 (stereo not drawn) | -8 | 1.07
CCCN(CC(F)F)C(=O)[C@@H]1COc2ccc(Br)cc21 | -7 | 0.6
CN(C)c1ccnc(NC(=O)NC[C@H]2OCCN(C)[C@@H]2c2cnn(C)c2)n1 | 2 | -0.35
COc1ccccc1N1CCN(C(=O)[C@H]2CCc3[nH]cnc3C2)CC1 | -13 | 2.24
Cc1nc(C)c(C(=O)NC[C@H]2CN(Cc3ccccc3)C(=O)CO2)s1 | -9 | 1.2
CC(C)=CCN1CCC([C@]2(Cc3ccccc3Cl)NC(=O)N(CC3CC3)C2=O)CC1 | 0 | -0.05
Cc1nc(CC(=O)N(CC(F)(F)F)c2cccc(Cl)c2)cs1 | -9 | 1.14
Cc1ccc2[nH]c(CCNC(=O)C[C@H](C)N3CCOCC3)nc2c1 | 1 | -0.22
CCOC1CC(N(C)S(=O)(=O)c2cc(C(N)=O)n(C)c2)C1(C)C (stereo not drawn) | 2 | -0.17
CCNC(=O)N(Cc1c(C)nn(-c2ccccc2)c1Oc1cccc(OC)c1)C1CC1 | 6 | -0.78
CCN(C(=O)[C@@H](N)C(C)C)c1ccccc1 | -12 | 1.6
C#Cc1cccc(C(=O)N2CCC(N3CCC(C(=O)NC[C@H]4CCCO4)CC3)CC2)c1 | -10 | 1.53
COc1cccc(-c2nc(-c3ccc(S(=O)(=O)N4CCCC4)cc3)no2)c1OC | -8 | 1.27
CN(C)C(=O)[C@]12CCS(=O)(=O)N(C)[C@@H]1CCN(C(=O)NCCc1ccccc1)C2 | -12 | 1.76
Fc1cccc(Cl)c1CN1CC(c2nc(-c3ncccn3)no2)C1 | 3 | -0.48
COCCn1cnc2oc(C)c(C(=O)Nc3cccnc3)c2c1=O | -5 | 0.86
CCN1CCc2ncnc(N3CCc4sccc4[C@@H]3C)c2C1 | 3 | -0.44
Cn1cc(C(=O)N2CCC(c3nc4ccccc4s3)CC2)c2ccccc21 | -30 | 3.48
O=C(c1cc[nH]c(=O)c1)N1CCCCC[C@@H]1Cc1ccccc1Cl | -5 | 0.82
C[C@@H]1CN(C(=O)OC(C)(C)C)C[C@H](C)N1Cc1ncccn1 | -11 | 1.15
O=C(Cn1cnnn1)Nc1ccc(F)cc1Nc1ccccc1F | 11 | -1.44
